Results from the supplement of paper PMC12217912.
The other results are listed elsewhere or left out. Sequences were assembled here from the parent chain. Values near 0.05 are background.

B1: TEV protease; numbered along this chain (parent)
chain: MGESLFKGPRDYNPISSSICHLTNESDGHTTSLYGIGFGPFIITNKHLFRRNNGTLVVQSLHGVFKVKDTTTLQQHLVDGRDMIIIRMPKDFPPFPQKLKFREPQREERICLVTTNFQTKSMSSMVSDTSCTFPSGDGIFWKHWIQTKDGQCGSPLVSTRDGFIVGIHSASNFTNTNNYFTSVPKNFMELLTNQEAQQWVSGWRLNADSVLWGGHKVFMVKPEEPFQPVKEATQL

Variants of: B1
Assay: raw area under fraction-flipped curve 0-4 h after induction (AUC4h, not background-subtracted), DNA-recorder readout of cleavage of the substrate (dimensionless); higher = more cleavage of the substrate by the protease variant
Conditions: temperature: 34 °C; time window: 0-4 h after rhamnose induction
Protocol: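 In vivo DNA recorder in E. coli TOP10(DE3) ΔrhaA at 34 °C. Each TEVp single-site mutant (parent TEVp 0) is paired with a single-site variant of the 7-mer TEVs (canonical ENLYFQ|S). The substrate sits between flexible linkers in a Bxb1-sfGFP-TEVs-SsrA fusion, so cleavage stabilises Bxb1 and speeds flipping of a recombination array, read by NGS. The value is the raw area under the fraction-flipped curve over 0-4 h after rhamnose induction (AUC4h), with ≥20 reads per time point. It is not background-subtracted; inactive controls average about 0.047.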
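Further: Bxb1 expression induced with 0.2% (w/v) L-rhamnose at OD600 near 0.5, cultures sampled hourly, flipped fraction per protease–substrate barcode pair counted by paired-end Illumina sequencing.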

| Variant | area with substrate ENLYAQS | area with substrate ENLYEQS | area with substrate ENLYGQS | area with substrate ENLYHQS | area with substrate ENLYIQS | area with substrate ENLYKQS | area with substrate ENLYMQS | area with substrate ENLYNQS | area with substrate ENLYSQS | area with substrate ENLYTQS | area with substrate ENLYVQS | area with substrate ENLYWQS | area with substrate ENLYDQS | area with substrate ENLYQQS | area with substrate ENLYRQS | area with substrate ENLYYQS | area with substrate ENLYLQS | area with substrate ENLYPQS | area with substrate ENLYCQS |
| --- | --- | --- | --- | --- | --- | --- | --- | --- | --- | --- | --- | --- | --- | --- | --- | --- | --- | --- | --- |
| E108A | 0.0713 | 0.0598 | 0.0509 | 0.0554 | 0.0763 | 0.02 | 0.05 | 0.0503 | 0.0552 | 0.0369 | 0.0428 | 0.0195 | – | – | – | – | – | – | – |
| R109G | 0.0623 | 0.0678 | 0.0657 | 0.0731 | 0.135 | 0.0674 | 0.0804 | 0.0682 | 0.0811 | – | – | 0.0755 | 0.0608 | 0.07 | 0.0679 | 0.0519 | – | – | – |
| R109I | 0.082 | 0.0611 | 0.066 | 0.0496 | 0.114 | 0.0598 | 0.0901 | 0.0589 | 0.0317 | – | 0.103 | 0.0726 | 0.0599 | 0.0731 | 0.0683 | 0.1 | 0.0712 | 0.063 | – |
| R109W | 0.0847 | – | 0.0654 | 0.0691 | 0.111 | – | 0.068 | 0.0685 | 0.0705 | 0.0915 | – | 0.0748 | 0.0588 | 0.0795 | 0.0582 | – | – | 0.076 | 0.0883 |
| I110G | 0.059 | 0.0563 | 0.0445 | 0.0572 | 0.0574 | – | 0.0576 | 0.0511 | 0.0512 | 0.0517 | 0.0695 | – | 0.0503 | – | 0.0303 | – | – | – | – |
| I110T | 0.0562 | 0.0566 | 0.0688 | 0.0601 | 0.0945 | 0.0662 | 0.0907 | 0.0685 | 0.0567 | – | 0.106 | 0.0707 | 0.0547 | 0.0669 | 0.0635 | – | – | 0.066 | – |
| C111S | 0.0875 | 0.0773 | 0.0541 | 0.0589 | 0.118 | 0.0664 | 0.081 | 0.0499 | 0.0724 | 0.0843 | 0.112 | 0.0432 | 0.0671 | 0.0674 | 0.0481 | 0.0569 | – | 0.0663 | 0.0815 |
| V113G | 0.0817 | 0.0795 | 0.0408 | – | – | – | 0.0768 | – | – | 0.0751 | – | 0.0644 | 0.05 | – | 0.0654 | – | – | – | – |
| S121H | 0.0827 | 0.0668 | 0.0649 | 0.0728 | 0.145 | 0.0379 | 0.0959 | 0.0723 | 0.0678 | 0.0866 | 0.133 | 0.0908 | 0.0701 | 0.0668 | 0.0528 | – | 0.0792 | 0.0752 | – |
| S121W | 0.0692 | 0.0592 | – | 0.0734 | – | 0.0514 | 0.0932 | 0.0737 | 0.0772 | – | – | – | 0.0691 | 0.07 | 0.0526 | – | 0.0615 | – | – |
| S123D | 0.0696 | 0.0658 | 0.0688 | 0.0618 | 0.124 | 0.0506 | 0.0848 | 0.0705 | – | 0.0784 | 0.108 | 0.0753 | 0.0792 | 0.0708 | 0.0663 | 0.061 | 0.0713 | 0.0798 | – |
| S123I | 0.0646 | 0.0542 | 0.0654 | 0.0761 | – | 0.0327 | 0.11 | – | 0.0612 | – | – | 0.064 | 0.0645 | – | 0.0664 | 0.0717 | – | 0.0921 | 0.0808 |
| S124R | 0.0975 | 0.076 | 0.0708 | 0.0538 | 0.116 | 0.0581 | 0.078 | 0.0668 | 0.0687 | 0.0899 | 0.129 | 0.0908 | 0.0837 | 0.0546 | 0.0656 | 0.0834 | 0.0634 | 0.0711 | – |
| S124V | 0.0724 | 0.0793 | 0.0666 | 0.0476 | 0.111 | 0.0656 | 0.104 | 0.0711 | 0.071 | 0.0712 | 0.103 | 0.103 | 0.0639 | 0.0596 | 0.0537 | – | – | 0.0664 | – |
| V126A | 0.0694 | 0.077 | 0.0644 | 0.076 | – | 0.0502 | 0.0941 | 0.0724 | 0.0686 | – | – | 0.0878 | 0.0699 | 0.0607 | 0.0591 | 0.0616 | 0.105 | 0.0772 | 0.0718 |
| V126Y | 0.0764 | 0.0708 | 0.0702 | 0.0793 | 0.132 | 0.0349 | 0.0682 | 0.0655 | 0.089 | 0.0752 | 0.0887 | 0.0943 | 0.0565 | 0.0643 | 0.0594 | 0.0599 | – | 0.0775 | 0.101 |
| S127E | 0.0541 | 0.0749 | 0.0738 | 0.0586 | 0.117 | 0.0655 | 0.0722 | 0.0595 | 0.0645 | 0.0784 | 0.0067 | 0.0757 | 0.0831 | 0.0722 | 0.0618 | – | 0.0852 | 0.0685 | – |
| S127G | 0.0798 | 0.0604 | 0.0714 | 0.0748 | 0.14 | 0.0649 | 0.0789 | 0.0792 | – | – | 0.126 | 0.0954 | 0.0648 | 0.0659 | 0.0707 | – | – | 0.0732 | 0.0922 |
| T132A | 0.103 | 0.0601 | 0.0591 | 0.0596 | 0.166 | 0.0662 | 0.093 | 0.0741 | 0.0713 | 0.0866 | – | 0.0834 | 0.06 | 0.0594 | 0.0624 | 0.058 | – | – | – |
| F133K | 0.0782 | 0.0571 | 0.0669 | 0.0484 | – | 0.0468 | 0.0874 | – | 0.08 | 0.0938 | 0.128 | 0.0907 | 0.0633 | 0.0704 | 0.0709 | – | 0.0903 | – | – |
| P134D | 0.0698 | 0.0644 | 0.0653 | 0.0652 | 0.0934 | 0.0619 | 0.0654 | 0.0608 | 0.0804 | 0.0848 | 0.0903 | 0.0635 | 0.0646 | 0.0633 | 0.0578 | 0.0513 | 0.059 | – | 0.0786 |
| P134G | 0.0864 | 0.0618 | – | 0.0608 | 0.0989 | 0.0637 | 0.0744 | 0.057 | 0.0531 | – | 0.0649 | 0.0736 | 0.068 | 0.0563 | – | 0.0742 | – | 0.0671 | – |
| S135R | 0.0657 | 0.0584 | 0.0658 | 0.0617 | – | 0.0495 | 0.0564 | 0.0553 | 0.0669 | – | – | 0.0634 | 0.0658 | 0.0991 | 0.0638 | 0.0582 | – | 0.058 | 0.0719 |
